We go through 22 molecules from publication PMC12136788.

T1: UNK ZnF1-3 (human, UniProt Q9C0B0 31-174)
T1 sequence: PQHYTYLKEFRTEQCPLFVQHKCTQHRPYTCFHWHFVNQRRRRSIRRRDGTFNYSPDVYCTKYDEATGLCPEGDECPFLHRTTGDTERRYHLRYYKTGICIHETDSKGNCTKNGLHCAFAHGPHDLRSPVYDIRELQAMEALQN

B1: chr6:67234108:67234109:+_ENSMUSG00000036371_ENSMUST00000042990|mus_mus|motif|central (ssRNA)
RNA: GGGAGUUCUACAGUCCGACGAUCCUACCAAUACAUUUCUAAAUACAAAACUGACUAACAUAUUUUGUUACUUCUGUGUAGCGGGAGAAGUUCGUUUUCAAAACAGAUAAAAUUCAGUCUUUAGGUGUGAAUGGUAUGAAUGACCAACAGAGGAUUGAGCAUCA
B2: chr11:69480760:69480761:-_ENSMUSG00000059796_ENSMUST00000163666|mus_hu|motif|central (ssRNA)
RNA: GGGAGUUCUACAGUCCGACGAUCUUUUGGGAGAAGAGCCGGCGCCUGGGGCAAGAGCCUACCCCAAAGAAAAGGGUGUCGGAAAUGUUCACGGUUCCUUCUUUUGCCUCAAAAAGUGACAUUUAUUCAAAGAAAAAAAAUGACCAACAGAGGAUUGAGCAUCA
B3: chr16:13835293:13835294:+_ENSMUSG00000022681_ENSMUST00000136618|mus_hu|motif|central (ssRNA)
RNA: GGGAGUUCUACAGUCCGACGAUCAGAAAACAGUGUGUGAGCUGGAGAUGGGUGUUUUUUUAAAAACAUCAAGGUAGAUCGGAUAUGUUCAACAAAGUGGGGUGGCUCAGCCAGAGGCGAAGUGGAAAGAUUCUCUAGUAUUUGCAACAGAGGAUUGAGCAUCA
B4: 20142796_20142916_1202_CDS_ENSG00000114166_ENST00000263754|human|control|control (ssRNA)
RNA: GGGAGUUCUACAGUCCGACGAUCUCGCAGUCUUCGUUGAGAUGGUGCCUCCAGAUGCCAAUAGUUGAUGCGGUUUAGGAACAUUUUUGCCAACUCAACUAUUGUUUGCCUUUCUUUUGCUGGCAGGUGACUAAAUUUGUACUGCAACAGAGGAUUGAGCAUCA
B5: chr2:217001844:217001845:+_ENSG00000079246_ENST00000392132|hu_hu|hu_hu_hu_mus_False|38_98 (ssRNA)
RNA: GGGAGUUCUACAGUCCGACGAUCACCAACUUGAGGAUUAGCUCUUUUGUCAUAAGCAUAUCGGACGAUGGCGACCAUGUUUAACUCAUCCAAAGCAUGAAUCAGGGAGGAAAGGGCAACAGCUGCCGCCUCAUCAUCCUUUGCCAACAGAGGAUUGAGCAUCA
B6: chr5:31101443:31101444:+_ENSMUSG00000029168_ENSMUST00000114729|mus_mus|motif|central (ssRNA)
RNA: GGGAGUUCUACAGUCCGACGAUCUGGUUUUUGGGUCAAUAUAAGAGAUGCCAUUGUCACGGCAAUGGCUUGACAAGCAACCGGCUGUGGACUCCUAGCACUACACAUACACACACGCACACACACACUGUAGCACAAUUUUCUCAACAGAGGAUUGAGCAUCA
B7: chr3:33863462:33863463:+_ENSG00000170248_ENST00000307296|hu_hu|motif|central (ssRNA)
RNA: GGGAGUUCUACAGUCCGACGAUCUGCAAUUUGGCUAGCUAAGGCUGCACAAUUGAACAACACACAGCUCUUUUCAUAUCCGGAGCUUGCAAGAGCCAGUUUUACAGAGCCUCCAAAAAGUGAACCUUUAUCGAAAGCAUCCUUCAACAGAGGAUUGAGCAUCA
B8: chr3:148802587:148802588:-_ENSG00000071794_ENST00000310053|hu_mus|hu_hu_hu_mus_False|28_108 (ssRNA)
RNA: GGGAGUUCUACAGUCCGACGAUCUCCAACCACAUGACCUCUCAUAGUUCCAAAUAAAACCAAAUCUUGCUCUUCAUCACUCGUUAGGAAGUCAUCUGGAGGAAUAACAUCUUGGAAUUCAAAAUGUGGCAAGAAAGUUGAGUACAACAGAGGAUUGAGCAUCA
B9: chr17:66251843:66251844:+_ENSG00000196704_ENST00000359783|hu_hu|FALSE|FALSE (ssRNA)
RNA: GGGAGUUCUACAGUCCGACGAUCAAAUAUGUGUCCGAUCUCAUGGGUUAAAGUCUUACAGGAUCGAAGUAGUAAAACACUAGUUAUUUCUGGAAUAUAAUAGUUGUCGAAAAUUGAAUAGUCACUUGAAGAUGUUUUCUUGAGCAACAGAGGAUUGAGCAUCA
B10: chr8:95844298:95844299:+_ENSG00000164941_ENST00000520526|hu_hu|motif|central (ssRNA)
RNA: GGGAGUUCUACAGUCCGACGAUCCUAGAGUUCUCAUCGUAUGGACAUAAAGAUCCUUGUUUAAUUUUAGGGCUGCUUCGGGUACCAAAAUAGAAUCAGCAGCUUGUUCUUUGAGCACUUUCAAAAUGUUUUCUGUUAGCUCUUCAACAGAGGAUUGAGCAUCA
B11: chr7:54823571:54823572:-_ENSG00000132432_ENST00000352861|hu_mus|hu_hu_hu_mus_False|1_28 (ssRNA)
RNA: GGGAGUUCUACAGUCCGACGAUCUCCCAUGAUAGCAAAUCCUAUAGCUGUAGCCAUGGCAAUCUUCUGGAAUUCUUUUCUGUCGGGUUUGGUGCAUCUUUUAACCAGCCGAAUGGAGUCCUUUACAAACUGCCGGCUUGGCUCCAACAGAGGAUUGAGCAUCA
B12: chr11:46405157:46405158:+_ENSG00000110492_ENST00000395566|hu_hu|hu_hu_hu_mus_False|58_58 (ssRNA)
RNA: GGGAGUUCUACAGUCCGACGAUCCCCUCCCCACUUUGGGCACUUGGUGUGGGCGUGAGAGGACAGGCGUGAUUGACAAAGCUAACGGGAAGACAAAAGGCACUGGUGGGUUAUAUCUUGGGCCUGUGGGAGAGGAGGGCUCCGCAACAGAGGAUUGAGCAUCA
B13: chr2:115689334:115689335:-_ENSMUSG00000027210_ENSMUST00000074285|mus_mus|motif|central (ssRNA)
RNA: GGGAGUUCUACAGUCCGACGAUCGCUCUUUGAAGAACAGUCCCCCAAAAUCAUAAUAAGAAUUGGCUUAUGAAGCACAAACGGUAAAGAUCUGUUUGAAACUAAAGGACACAUGGACGGGGGGAACAAAGGCCGGGCAUGAAACAACAGAGGAUUGAGCAUCA
B14: chr1:163117127:163117128:-_ENSG00000143248_ENST00000313961|hu_mus|hu_hu_hu_mus_False|98_108 (ssRNA)
RNA: GGGAGUUCUACAGUCCGACGAUCUGCGGGUUAUUAUGGAGGAAAUAUCACAGGGCAACUUUUGGAAGCCUGACCAGAUGACUACUUGAUUAGCUCCUUAUAAAAUUCAGAGCGCACAAAGCGGGGCAGAGAAUCCUUCUCCAUCAACAGAGGAUUGAGCAUCA
B15: 139256783_139256903_4521_3pUTR_ENSG00000064393_ENST00000406875|human|control|control (ssRNA)
RNA: GGGAGUUCUACAGUCCGACGAUCCUACUAGGGUGUCUGUGACGACCGCUAGCCCUACGCUACGCGACUAGGGGUGGAUUCAAAGAGAAAAUACAUUUUCAGAAAAGAAAAAAACCUAAAGUUUGCAACACACAUUAUUAAUGACAACAGAGGAUUGAGCAUCA
B16: chr3:176767854:176767855:-_ENSG00000177565_ENST00000430069|hu_hu|hu_hu_hu_mus_False|38_68 (ssRNA)
RNA: GGGAGUUCUACAGUCCGACGAUCGACAUCCUUGUUACUGGGCACGUCCUGCCCUCCUUCCCGUAUGCAAUGUCUAAGCACGAGCUGCGUAGGGCCACUGGUGCUGUUCUCACUGAGGUUCCAGAUUCUUGCCGUGGAGUCUCCCAACAGAGGAUUGAGCAUCA
B17: chr2:160605324:160605325:+_ENSG00000136536_ENST00000409591|hu_mus|FALSE|FALSE (ssRNA)
RNA: GGGAGUUCUACAGUCCGACGAUCUCUUGAAGGUGCACUUUUAGCUUUAUCAUUUUUCCCAUCAGUUGAAUUCCAACCAGAAGGAAUAAUAUCUACAGUAAUCAUGACAUUGUCAGCCAGAUUACUGCCGAGUGCUGGUGGGACCAACAGAGGAUUGAGCAUCA
B18: chr4:56736951:56736952:+_ENSG00000090989_ENST00000381295|hu_mus|FALSE|FALSE (ssRNA)
RNA: GGGAGUUCUACAGUCCGACGAUCGUUGCUCUCAGAGAUCUGAUCCAUCUGCUCUUUCACACUUUGGAGCAUCUCCUCGUAACUGCUCAGUUUCAGUUCAAUCUGGUCCACCUCCGUUAGCGCCUCAUCCAGCAACUGCAUCAGCAACAGAGGAUUGAGCAUCA
B19: chr10:1038518:1038519:+_ENSG00000107937_ENST00000545048|hu_hu|hu_hu_hu_mus_False|48_58 (ssRNA)
RNA: GGGAGUUCUACAGUCCGACGAUCCAGUCUGUCAUGGUAAUUCUGUUGAGUAAAUUUGACUUUUCUCAUAUAAAAAUGUCUAAUGCGAUGUAUUUGGUAAUGUUUAUGAAUAACCGUUGGAGUCUUUCGUUGAGUCUUGGAUAACAACAGAGGAUUGAGCAUCA
B20: chr6:52671308:52671309:+_ENSMUSG00000004535_ENSMUST00000080723|mus_mus|FALSE|FALSE (ssRNA)
RNA: GGGAGUUCUACAGUCCGACGAUCCCACAUUUUGAAAGAUGACAUGGGCAAAAUUGGAAGUCUGCAAUUGGACUUCUUGAAAGGAUGUCAUUGUGAAUCGGUCAGGGCCUCCGCCCCGCACGCUACGCCGCGCCCCGAACCUCCCAACAGAGGAUUGAGCAUCA
B21: chr4:148554787:148554788:-_ENSMUSG00000063077_ENSMUST00000060537|mus_hu|FALSE|FALSE (ssRNA)
RNA: GGGAGUUCUACAGUCCGACGAUCUCUCAGCACAAGAAAAAAGAAAAGAGUACAGAGCAAUGGAGAUGGGGAACGGGAGAGCUAGAAAAGUGCUGGACAAGGAGGGAGAAGUAGUUAAGCCACAGGAUUACAUACAAGAGUCACCAACAGAGGAUUGAGCAUCA
B22: 118884368_118884488_153_3pUTR_ENSMUSG00000025577_ENSMUST00000026662|mouse|control|control (ssRNA)
RNA: GGGAGUUCUACAGUCCGACGAUCGAGCCGCUUGCUCAGGAUGCACUCGGCGGCGAAGACCUGCUCGCCCACGCUGCUCAGCUCCUCCAUGCCGCCGCCCGCCGCGGCCCGCGCCCCGCAGACCCCGGCUCACUGCUGCACACACAACAGAGGAUUGAGCAUCA

The other results are listed elsewhere or left out.

The target of the assay is T1, UNK ZnF1-3. The assay is described as follows: nsRBNS (natural sequence RNA bind-n-seq); RBNS binding buffer (assumed for nsRBNS): 25 mM Tris pH 7.5, 150 mM KCl, 3 mM MgCl2, 0.01% Triton X-100, 500 ug/ml BSA, 20 U/ml SUPERase-In, 4 C; UNK is unkempt and MSI1 is Musashi-1; names of the RNAs are library labels; protein concentration not given here; high values mean tight binding.
For the molecule B1, the binding signal stood at 1.15 enrichment R. B2 showed a binding signal of 1.25 enrichment R. On to B3, for which the binding signal was 2.29 enrichment R.

In turn, B4 registered a binding signal of 0.569 enrichment R. With B5, the binding signal stood at 1.8 enrichment R.

With B6, the binding signal is 1.21 enrichment R. Take B7: the binding signal amounted to 1.01 enrichment R. B8: the binding signal came out at 1.31 enrichment R. As to B9, the binding signal stood at 1.41 enrichment R. B10 came in with a binding signal of 0.856 enrichment R.

As to B11, the binding signal is 0.717 enrichment R.

Take B12: the binding signal came out at 2.82 enrichment R. The molecule B13 had a binding signal of 2.16 enrichment R.

Consider B14, for which the binding signal is 1.56 enrichment R. B15 returned a binding signal of 0.996 enrichment R. B16 registered a binding signal of 0.588 enrichment R. The same measure for B17: 0.628 enrichment R; for B18: 0.946 enrichment R.

The molecule B19 yielded a binding signal of 0.645 enrichment R. B20 gave a binding signal of 1.14 enrichment R. In turn, B21 displayed a binding signal of 3.09 enrichment R. The molecule B22 yielded a binding signal of 0.711 enrichment R.
